# Data: the RNAGym collection of RNA variant scans (doi:10.7554/elife.90254)
# Read counts are not given, so values of variants with three or more changes are uncertain.
# B1: LINE1-mini (parent)
# chain: GGCAGAGCUCAACACAGCGUGGCAAAGUGGCUGUGGCUAGACUGCC
# Variants of: B1
# Assay: self-cleavage, relative activity (ratio to wild type); higher = more cleavage; in vitro, sequencing; the parent is a self-cleaving ribozyme
row,Variant,self-cleavage
1,GGCAGAGCUCAACACAGCGUGGGAAAGUGGCUGUGGCUAGAGUUCC [C23G C42G G44U],0.01
2,GGCAGAGCUCAACACAGCGUGGAAAAGUGGCUAUUGCUAAACUGCC [C23A G33A G35U G40A],0.07
3,GGCAGAGCUCAACACAGCGUGGAUAAGUGGCUCUGGCUUGACUGCC [C23A A24U G33C A39U],0.02
4,GGCAGAGCUCAACACAGCGUGGAAAAUUGGCUGUGGCUAGUCUGCC [C23A G27U A41U],0.44
5,GGCAGAGCUCAACACAGCGUGUCAAAGUCGGUGUGGCUAGAAAGCC [G22U G29C C31G C42A U43A],0.12
6,GGCAGAGCUCAACACAGCGUGUCAAAGUGGCUGUGGAUUGACUGCC [G22U C37A A39U],0.11
7,GGCAGAGCUCAACACAGCGUGUCAAAGUGGCUGCGGCUUGACUGCC [G22U U34C A39U],0.72
8,GGCAGAGCUCAACACAGCGUGGUUAAGUUGAUGUGGGUAGACUGCC [C23U A24U G29U C31A C37G],0.02
9,GGCAGAGCUCAACACAGCGUGGAAAAGCCGCUGUGGCUAGACUCCC [C23A U28C G29C G44C],0.03
10,GGCAGAGCUCAACACAGCGUGUCAAAGUGGCUGGGGCUAGACUGAA [G22U U34G C45A C46A],0.04
11,GGCAGAGCUCAACACAGCGUGGGGAAGUGGCUGUGGGUAGACUGCC [C23G A24G C37G],0.04
12,GGCAGAGCUCAACACAGCGUGUCAAAGUGACUGUGGCCAGCCUGCC [G22U G30A U38C A41C],0.03
13,GGCAGAGCUCAACACAGCGUGGGAAUGGGGUUGUGUCUAGACUGCC [C23G A26U U28G C31U G36U],0.01
14,GGCAGAGCUCAACACAGCGUGGGAAAGUGCCUCUGGCUAGACUGCC [C23G G30C G33C],0.01
15,GGCAGAGCUCAACACAGCGUGUCAAAGUGACAGUGGCUAAACUGCC [G22U G30A U32A G40A],0.05
16,GGCAGAGCUCAACACAGCGUGUCAAAGUGGCUCUGGCUAGACUGUC [G22U G33C C45U],0.05
17,GGCAGAGCUCAACACAGCGUGGAAAAGUGGCGGUGUCUAGACUGCC [C23A U32G G36U],0.1
18,GGCAGAGCUCAACACAGCGUGUCAAAGUGGCGGUGGCUAUACUGCA [G22U U32G G40U C46A],0.04
19,GGCAGAGCUCAACACAGCGUGGAAAACUGGCUGUGGUUAGACUGCC [C23A G27C C37U],0.03

row,Variant,self-cleavage
1,GGCAGAGCUCAACACAGCGUGGAAAAGUAGCUGUGGCUAGAGUGCC [C23A G29A C42G],0
2,GGCAGAGCUCAACACAGCGUGGAAAAGUAGCUGUUGCUAGACUGCC [C23A G29A G35U],0.01
3,GGCAGAGCUCAACACAGCGUGUCAAAGUGGCUGUAGCUAGAAUGCC [G22U G35A C42A],0.01
4,GGCAGAGCUCAACACAGCGUGGAAAAGUGCCUGGGGCUAGACUGCC [C23A G30C U34G],0.52
5,GGCAGAGCUCAACACAGCGUGUCAAAAUGUCUGUUUCUAGACUGCC [G22U G27A G30U G35U G36U],0.39
6,GGCAGAGCUCAACACAGCGUGGGAAAGUGGCUAAGGCUAGACUCGC [C23G G33A U34A G44C C45G],0.02
7,GGCAGAGCUCAACACAGCGUGGAAAAGUCGCGGAGGCUAGACUGCC [C23A G29C U32G U34A],0.07
8,GGCAGAGCUCAACACAGCGUGUCAAAGAGGCUGUAGCUAGACUGCC [G22U U28A G35A],0.17
9,GGCAGAGCUCAACACAGCGUGGAAAAGUGGCAGUGGCUAGACUACC [C23A U32A G44A],0.07
10,GGCAGAGCUCAACACAGCGUGUCAAAGUGGAGGGGGCUAGACUGCC [G22U C31A U32G U34G],0.08
11,GGCAGAGCUCAACACAGCGUGGAUAAAUGGCUGUGGCUAGACUGCG [C23A A24U G27A C46G],2.02
12,GGCAGAGCUCAACACAGCGUGGAAUAGUGGCUGUGGCUAGAUUGUC [C23A A25U C42U C45U],0.17
13,GGCAGAGCUCAACACAGCGUGUCAAAGUGGCCGUGGCUAGACUGGC [G22U U32C C45G],0.06
14,GGCAGAGCUCAACACAGCGUGUCAAAGCGGCUGUGGCUAGCAUGCC [G22U U28C A41C C42A],0.02
15,GGCAGAGCUCAACACAGCGUGGGACAGUGGCUGUGGCGAGACUGCC [C23G A25C U38G],0
16,GGCAGAGCUCAACACAGCGUGUCAAAGUGGUUCUGGCUAGACUGCC [G22U C31U G33C],0.05
17,GGCAGAGCUCAACACAGCGUGGGAAAGUGGUUGUGGCUGCACCACC [C23G C31U A39G G40C U43C G44A],0.01
18,GGCAGAGCUCAACACAGCGUGGGAAAGUGGCAGUGGCUAGACGGCC [C23G U32A U43G],0.09
19,GGCAGAGCUCAACACAGCGUGGAACAGUGGGAGUGGCUAGACUGCC [C23A A25C C31G U32A],0.13

row,Variant,self-cleavage
1,GGCAGAGCUCAACACAGCGUGGAAAAGCGGCUGUGGUUAGACUGCC [C23A U28C C37U],0.02
2,GGCAGAGCUCAACACAGCGUGUCAAAGUCGCUGUGGCUAGACCGCC [G22U G29C U43C],0.03
3,GGCAGAGCUCAACACAGCGUGGUAUAGUGGCUGUAGCUAGAAAGCU [C23U A25U G35A C42A U43A C46U],0.01
4,GGCAGAGCUCAACACAGCGUGGGAAAGUGGCUGUGACUAUAGUGCC [C23G G36A G40U C42G],0.09
5,GGCAGAGCUCAACACAGCGUGUCAAAGUGGCUGUGACUUGACUGCC [G22U G36A A39U],0.1
6,GGCAGAGCUCAACACAGCGUGUCAAAAUGGCUGUGUCUAGACUACC [G22U G27A G36U G44A],0.1
7,GGCAGAGCUCAACACAGCGUGGGCAAGUGGCGGUGGCUAGACUGCC [C23G A24C U32G],0
8,GGCAGAGCUCAACACAGCGUGGGAAAGUGGCGGUGGCUAGACUGGC [C23G U32G C45G],0.04
9,GGCAGAGCUCAACACAGCGUGGGAAAGUGGCUAUUGCUAGACUGCC [C23G G33A G35U],0.04
10,GGCAGAGCUCAACACAGCGUGGGAAACUGGCUGUGGCUACACUGCC [C23G G27C G40C],0.03
11,GGCAGAGCUCAACACAGCGUGGAUAAGUGUCUAUGGCUAGACUGCU [C23A A24U G30U G33A C46U],0.2
12,GGCAGAGCUCAACACAGCGUGUCAAAGUUGCUGUGGCUAGACUGUA [G22U G29U C45U C46A],0.16
13,GGCAGAGCUCAACACAGCGUGGAAAAGUGGCUGUGGAUGGACUGCC [C23A C37A A39G],0.02
14,GGCAGAGCUCAACACAGCGUGUCAAAGUAGCUGUGGGUAGACUGCC [G22U G29A C37G],0.04
15,GGCAGAGCUCAACACAGCGUGGGCAAGUGGCUGUGGCUGGACUGCC [C23G A24C A39G],0.05
16,GGCAGAGCUCAACACAGCGUGGAAAAGUGUCUCUGGCUAAACUGCC [C23A G30U G33C G40A],0.06
17,GGCAGAGCUCAACACAGCGUGUUAAAGUGACUGUGGCUAGACUGCC [G22U C23U G30A],1.24
18,GGCAGAGCUCAACACAGCGUGUCAAAGUGGCUGUGGCGAGACAGCC [G22U U38G U43A],0.03
